# According to the supplement of paper PMC4967469:
# The IC50 comes from the fitted curve, where viability falls to half of the control; where the fit passes the top or lowest dose, that dose stands as a limit. The AUC spans the tested range (256-fold, ending at the top dose) of the same fit: 1 means no effect, lower means more sensitive. For some assays here: An inferred top dose was derived from the fitted curves, not read from the paper. For some assays here: Where an entry number is given, a second screen of the drug exists; the two often differ.
# What was measured:
# Assay in all cases: Viability of human cancer cell lines after 72 h of drug (GDSC screen)
# AUY922 = compound: CCNC(=O)c1noc(-c2cc(C(C)C)c(O)cc2O)c1-c1ccc(CN2CCOCC2)cc1 [AUY922]; conditions: top dose 0.256 µM; top dose inferred
# Method: (§1)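 Human cancer cell lines in 384-well plates, medium with 10% serum, drug for 72 h over a 256-fold dose range (nine 2-fold or five 4-fold steps up to the top dose). Adherent lines were fixed and stained with the nucleic acid dye Syto60, suspension lines read with resazurin; signal relative to control wells, capped at 0 and 100%. One two-parameter sigmoid per drug and line, fitted in a mixed model over all curves with the slope shared within a line.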
# Bicalutamide = compound: CC(O)(CS(=O)(=O)c1ccc(F)cc1)C(=O)Nc1ccc(C#N)c(C(F)(F)F)c1 [Bicalutamide]; conditions: top dose inferred
# Method: as §1
# Nilotinib = compound: Cc1cn(-c2cc(NC(=O)c3ccc(C)c(Nc4nccc(-c5cccnc5)n4)c3)cc(C(F)(F)F)c2)cn1 [Nilotinib]; conditions: top dose 2 µM
# Method: as §1
# MP470 = compound: S=C(NCc1ccc2c(c1)OCO2)N1CCN(c2ncnc3c2oc2ccccc23)CC1 [MP470]; conditions: top dose 20 µM; top dose inferred
# Method: as §1
# LFM-A13 = compound: C/C(O)=C(\C#N)C(=O)Nc1cc(Br)ccc1Br [LFM-A13]; conditions: top dose 16 µM; top dose inferred
# Method: as §1
# KIN001-270 = compound: Cc1ccc(Nc2cc(-c3cccc(N4C(=O)c5ccccc5C4=O)c3)ncn2)cc1NS(C)(=O)=O [KIN001-270]; conditions: top dose 20 µM; top dose inferred
# Method: as §1
# Gemcitabine = compound: Nc1ccn([C@@H]2O[C@H](CO)[C@@H](O)C2(F)F)c(=O)n1 [Gemcitabine]; conditions: top dose 1.024 µM
# Method: as §1
# T0901317 = compound: O=S(=O)(c1ccccc1)N(CC(F)(F)F)c1ccc(C(O)(C(F)(F)F)C(F)(F)F)cc1 [T0901317]; conditions: top dose 10.24 µM; top dose inferred
# Method: as §1
# TW-37 = compound: CC(C)c1ccccc1Cc1cc(C(=O)Nc2ccc(S(=O)(=O)c3ccccc3C(C)(C)C)cc2)c(O)c(O)c1O [TW-37]; conditions: top dose 5 µM
# Method: as §1
# [1] = top dose 1.024 µM, screen: GDSC drug entry 150
# [2] = top dose 10 µM, screen: GDSC drug entry 1502
Cell Line,AUC (AUY922),IC50 (AUY922) [nM],AUC (Bicalutamide; [1]),IC50 (Bicalutamide; [1]) [nM],AUC (Bicalutamide; [2]),IC50 (Bicalutamide; [2]) [nM],AUC (Nilotinib),IC50 (Nilotinib) [nM],AUC (MP470),IC50 (MP470) [µM],AUC (LFM-A13),IC50 (LFM-A13) [µM],AUC (KIN001-270),IC50 (KIN001-270) [µM],AUC (Gemcitabine),IC50 (Gemcitabine) [nM],AUC (T0901317),IC50 (T0901317) [µM],AUC (TW-37),IC50 (TW-37) [nM]
"A431 (skin, adherent)",0.412,9.31,0.987,> 1020,0.969,> 10000,0.981,> 2000,0.935,> 20,0.956,> 16,0.961,> 20,0.076,< 4,0.981,> 10.2,0.745,1520
"HN (head and neck, adherent)",0.637,37.3,0.987,> 1020,0.968,> 10000,0.976,> 2000,0.529,1.49,0.988,> 16,0.988,> 20,0.498,63.1,0.988,> 10.2,0.486,287
"MOG-G-UVW (glioma, adherent)",0.578,26,0.985,> 1020,0.978,> 10000,0.943,> 2000,0.982,> 20,0.953,> 16,0.972,> 20,0.171,6.65,0.982,> 10.2,0.467,255
"SK-MEL-24 (melanoma, adherent)",0.571,26,0.982,> 1020,0.939,> 10000,0.98,> 2000,0.983,> 20,0.947,> 16,0.961,> 20,0.976,> 1020,0.982,> 10.2,0.54,
"JHH-6 (liver, adherent)",0.625,35.6,0.987,> 1020,0.969,> 10000,0.987,> 2000,0.977,> 20,0.962,> 16,0.971,> 20,0.61,129,0.955,> 10.2,0.604,604
"FU-OV-1 (ovary, adherent)",0.77,129,0.975,> 1020,0.979,> 10000,0.977,> 2000,0.939,> 20,0.912,> 16,0.981,> 20,0.969,> 1020,0.971,> 10.2,0.677,1140
"HCT-15 (large intestine, adherent)",0.735,78.4,0.987,> 1020,,,0.987,> 2000,0.943,> 20,0.949,> 16,0.981,> 20,0.424,39,0.966,> 10.2,0.385,148
"CFPAC-1 (pancreas, adherent)",0.499,15.9,0.975,> 1020,0.979,> 10000,0.973,> 2000,0.977,> 20,0.952,> 16,0.979,> 20,0.124,< 4,0.974,> 10.2,0.603,626
"VAL (B-cell lymphoma, suspension)",0.818,145,0.985,> 1020,,,0.946,> 2000,0.586,2.15,0.929,> 16,0.889,> 20,0.733,296,0.925,> 10.2,0.464,249
"HEC-1 (endometrium, adherent)",0.719,64.9,0.988,> 1020,0.988,> 10000,0.943,> 2000,0.953,> 20,0.981,> 16,0.989,> 20,0.592,113,0.983,> 10.2,0.41,179
"YAPC (pancreas, adherent)",0.892,> 256,0.985,> 1020,0.96,> 10000,0.983,> 2000,0.947,> 20,0.943,> 16,0.985,> 20,0.983,> 1020,0.976,> 10.2,0.608,669
"MKN45 (stomach, adherent)",0.838,243,0.89,> 1020,0.978,> 10000,0.976,> 2000,0.951,> 20,0.973,> 16,0.979,> 20,0.36,23.6,0.979,> 10.2,0.506,325
"HMV-II (melanoma, adherent)",0.38,6.92,0.982,> 1020,0.979,> 10000,0.935,> 2000,0.925,> 20,0.975,> 16,0.975,> 20,0.242,9.51,0.951,> 10.2,0.483,278
"SW48 (large intestine, adherent)",0.547,21.4,0.975,> 1020,0.985,> 10000,0.985,> 2000,0.939,> 20,0.986,> 16,0.973,> 20,0.741,312,0.979,> 10.2,0.468,256
